Where a chain is given by its changes, count along the chain named.
T1: human PAC1 receptor (human, UniProt P41586 21-468)
T1 sequence: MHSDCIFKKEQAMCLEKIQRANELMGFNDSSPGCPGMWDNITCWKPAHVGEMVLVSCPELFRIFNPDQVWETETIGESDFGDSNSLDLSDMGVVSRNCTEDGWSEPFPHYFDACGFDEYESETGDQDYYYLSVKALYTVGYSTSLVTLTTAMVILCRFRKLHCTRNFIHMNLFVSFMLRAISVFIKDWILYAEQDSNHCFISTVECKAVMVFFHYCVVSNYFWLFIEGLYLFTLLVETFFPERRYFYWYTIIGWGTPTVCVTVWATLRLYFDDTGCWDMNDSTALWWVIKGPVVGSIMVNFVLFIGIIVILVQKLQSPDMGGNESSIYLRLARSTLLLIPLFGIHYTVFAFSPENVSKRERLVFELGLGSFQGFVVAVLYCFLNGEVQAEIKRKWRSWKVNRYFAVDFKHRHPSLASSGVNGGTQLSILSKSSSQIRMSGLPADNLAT

B1: iPS:327277 (bispecific antibody, human IgG1, kappa, lambda, N297G)
light 1: DIVMTQSPDSLAVSLGERATIHCKSSQSVLYSSNNKNFLTWYQQKPGQPPKLLIYRASTRESGVPDRFSGSGSGTDFTLTISSLQAEDVAVYFCQQYYSAPFTFGPGTRVDIKRTVAAPSVFIFPPSDEQLKSGTASVVCLLNNFYPREAKVQWKVDNALQSGNSQESVTEQDSKDSTYSLESTLTLSKADYEKHKVYACEVTHQGLSSPVTKSFNRGEC
heavy 1: QVQLQESGPGLVKPSQTLSLTCTVSGGSISSGGYYWSWIRQHPGKGLEWIGYIYYSGNTYYNPSLKSRVTISGDTSKNQFSLKLRSVTAADTAVYYCTRGGAARGMDVWGQGTTVTVSSASTKGPSVFPLAPSSKSTSGGTAALGCLVKDYFPEPVTVSWNSGALTSGVHTFPAVLQSSGLYSLKSVVTVPSSSLGTQTYICNVNHKPSNTKVDKKV[left out - human IgG1 Fc with R292C N297G V302C K370D K392D K409D (EU numbers)]
light 2: QSVLTQSPSASGTPGQRVTISCSGSSSNIGSNYVYWYQQLPGAAPKLLILRNNQRPSGVPDRFSGSKSGTSASLTISGLRSEDEADYYCAAWDDSLSGWVFGGGTKLTVLGQPKANPTVTLFPPSSEELQANKATLVCLISDFYPGAVTVAWKADGSPVKAGVETTKPSKQSNNKYAAKSYLSLTPEQWKSHRSYSCQVTHEGSTVEKTVAPTECS
heavy 2: [left out - about 100 residues]DRTGYSISWSSYYYYYGMDVWGQGTTVTVSSASTKGPSVFPLAPSSKSTSGGTAALGCLVKDYFPEPVTVSWNSGALTSGVHTFPAVLQSSGLYSLESVVTVPSSSLGTQTYICNVNHKPSNTKVDKKVEPKSCDKTHTCPPCPAPELLGGPSVFLFPPKPKDTLMISRTPEVTCVVVDVSHEDPEVKFNWYVDGVEVHNAKTKPCEEQYGSTYRCVSVLTVLHQDWLNGKEYKCKVSNKALPAPIEKTISKAKGQPREPQVYTLPPSRKKMTKNQVSLTCLVKGFYPSDIAVEWESNGQPENNYKTTPPVLKSDGSFFLYSKLTVDKSRWQQGNVFSCSVMHEALHNHYTQKSLSLSPGK
B2: iPS:328041 (bispecific antibody, human IgG1, kappa, lambda, N297G)
light 1: B1 light 1 with H22N
heavy 1: B1 heavy 1 with Q16E, H42P, G73V
light 2: B1 light 2 with S7P, L50F, T75A
heavy 2: [left out - about 100 residues]DRTGYSISWSSYYYYYGMDVWGQGTTVTVSSASTKGPSVFPLAPSSKSTSGGTAALGCLVKDYFPEPVTVSWNSGALTSGVHTFPAVLQSSGLYSLESVVTVPSSSLGTQTYICNVNHKPSNTKVDKKVEPKSCDKTHTCPPCPAPELLGGPSVFLFPPKPKDTLMISRTPEVTCVVVDVSHEDPEVKFNWYVDGVEVHNAKTKPCEEQYGSTYRCVSVLTVLHQDWLNGKEYKCKVSNKALPAPIEKTISKAKGQPREPQVYTLPPSRKKMTKNQVSLTCLVKGFYPSDIAVEWESNGQPENNYKTTPPVLKSDGSFFLYSKLTVDKSRWQQGNVFSCSVMHEALHNHYTQKSLSLSPGK
B3: iPS:328043 (bispecific antibody, human IgG1, kappa, lambda)
light 1: B1 light 1 with H22N
heavy 1: QVQLQESGPGLVKPSETLSLTCTVSGGSISSGGYYWSWIRQPPGKGLEWIGYIYYSGNTYYNPSLKSRVTISVDTSKNQFSLKLRSVTAADTAVYYCTRGGAARGMDVWGQGTTVTVSSASTKGPSVFPLAPSSKSTSGGTAALGCLVKDYFPEPVTVSWNSGALTSGVHTFPAVLQSSGLYSLKSVVTVPSSSLGTQTYICNVNHKPSNTKVDKKV[left out - human IgG1 Fc with changes]
light 2: B1 light 2
heavy 2: [left out - about 100 residues]DRTGYSISWSSYYYYYGMDVWGQGTTVTVSSASTKGPSVFPLAPSSKSTSGGTAALGCLVKDYFPEPVTVSWNSGALTSGVHTFPAVLQSSGLYSLESVVTVPSSSLGTQTYICNVNHKPSNTKVDKKVEPKSCDKTHTCPPCPAPELLGGPSVFLFPPKPKDTLMISRTPEVTCVVVDVSHEDPEVKFNWYVDGVEVHNAKTKPCEEQYGSTYRCVSVLTVLHQDWLNGKEYKCKVSNKALPAPIEKTISKAKGQPREPQVYTLPPSRKEMTKNQVSLTCLVKGFYPSDIAVEWESNGQPENNYKTTPPVLKSDGSFFLYSKLTVDKSRWQQGNVFSCSVMHEALHNHYTQKSLSLSPGK
B4: iPS:328038 (bispecific antibody, human IgG1, kappa, lambda)
light 1: B1 light 1 with H22N
heavy 1: QVQLQESGPGLVKPSETLSLTCTVSGGSISSGGYYWSWIRQPPGKGLEWIGYIYYSGNTYYNPSLKSRVTISVDTSKNQFSLKLRSVTAADTAVYYCTRGGAARGMDVWGQGTTVTVSSASTKGPSVFPLAPSSKSTSGGTAALGCLVKDYFPEPVTVSWNSGALTSGVHTFPAVLQSSGLYSLKSVVTVPSSSLGTQTYICNVNHKPSNTKVDKKV[left out - human IgG1 Fc with changes]
light 2: B1 light 2 with S7P, L50F, T75A
heavy 2: [left out - about 100 residues]DRTGYSISWSSYYYYYGMDVWGQGTTVTVSSASTKGPSVFPLAPSSKSTSGGTAALGCLVKDYFPEPVTVSWNSGALTSGVHTFPAVLQSSGLYSLESVVTVPSSSLGTQTYICNVNHKPSNTKVDKKVEPKSCDKTHTCPPCPAPELLGGPSVFLFPPKPKDTLMISRTPEVTCVVVDVSHEDPEVKFNWYVDGVEVHNAKTKPCEEQYGSTYRCVSVLTVLHQDWLNGKEYKCKVSNKALPAPIEKTISKAKGQPREPQVYTLPPSRKEMTKNQVSLTCLVKGFYPSDIAVEWESNGQPENNYKTTPPVLKSDGSFFLYSKLTVDKSRWQQGNVFSCSVMHEALHNHYTQKSLSLSPGK
B5: iPS:328046 (bispecific antibody, human IgG1, kappa, lambda, N297G)
light 1: B1 light 1 with H22N
heavy 1: B1 heavy 1 with Q16E, H42P, G73V
light 2: B1 light 2
heavy 2: [left out - about 100 residues]DRTGYSISWSSYYYYYGMDVWGQGTTVTVSSASTKGPSVFPLAPSSKSTSGGTAALGCLVKDYFPEPVTVSWNSGALTSGVHTFPAVLQSSGLYSLESVVTVPSSSLGTQTYICNVNHKPSNTKVDKKVEPKSCDKTHTCPPCPAPELLGGPSVFLFPPKPKDTLMISRTPEVTCVVVDVSHEDPEVKFNWYVDGVEVHNAKTKPCEEQYGSTYRCVSVLTVLHQDWLNGKEYKCKVSNKALPAPIEKTISKAKGQPREPQVYTLPPSRKKMTKNQVSLTCLVKGFYPSDIAVEWESNGQPENNYKTTPPVLKSDGSFFLYSKLTVDKSRWQQGNVFSCSVMHEALHNHYTQKSLSLSPGK

Tests used:
human CGRP receptor = human CGRP receptor (human, UniProt Q16602 23-461; O60894 27-148); test: cell-based or functional assay
human PAC1 receptor = molecular target: T1, human PAC1 receptor; test: cell-based or functional assay

human CGRP receptor, sequence (Q16602 23-461 limits assumed, chain 1 of 2): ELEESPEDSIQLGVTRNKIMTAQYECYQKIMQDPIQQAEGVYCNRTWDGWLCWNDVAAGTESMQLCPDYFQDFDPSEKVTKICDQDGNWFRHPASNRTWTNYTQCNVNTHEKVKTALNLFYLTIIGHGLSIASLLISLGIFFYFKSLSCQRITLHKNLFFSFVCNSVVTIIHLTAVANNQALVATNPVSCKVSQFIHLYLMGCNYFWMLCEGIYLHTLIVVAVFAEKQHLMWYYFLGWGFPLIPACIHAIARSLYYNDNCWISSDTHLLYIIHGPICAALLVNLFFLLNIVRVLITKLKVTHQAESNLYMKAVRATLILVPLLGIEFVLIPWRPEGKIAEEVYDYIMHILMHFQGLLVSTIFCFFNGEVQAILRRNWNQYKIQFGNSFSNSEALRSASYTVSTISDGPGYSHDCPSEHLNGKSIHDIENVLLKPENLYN
human CGRP receptor, sequence (O60894 27-148 limits assumed, chain 2 of 2, further chain): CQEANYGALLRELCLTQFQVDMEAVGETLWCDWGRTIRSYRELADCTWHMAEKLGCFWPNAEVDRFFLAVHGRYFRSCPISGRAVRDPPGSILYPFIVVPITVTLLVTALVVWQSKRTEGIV

% inhibition of human CGRPR (human CGRP receptor) [%] | % inhibition of human PAC1 (human PAC1 receptor) [%] | Binder
83 | 56 | B1
82 | 17 | B2
75 | 8 | B3
69 | 6 | B4
73 | 3 | B5

From US20170306033A1 (Amgen, published 2017)
